Source: publication PMC3271066
These are yes or no findings as the source states them, for the method shown. In cells and extracts the contact can be indirect. Some binding calls cover weakened binding; strength is not graded here. Sequences can lack the tags named with a protein.

Chains of the proteins cited; added tags and fusions are not shown.
UniProt Q9HDV4: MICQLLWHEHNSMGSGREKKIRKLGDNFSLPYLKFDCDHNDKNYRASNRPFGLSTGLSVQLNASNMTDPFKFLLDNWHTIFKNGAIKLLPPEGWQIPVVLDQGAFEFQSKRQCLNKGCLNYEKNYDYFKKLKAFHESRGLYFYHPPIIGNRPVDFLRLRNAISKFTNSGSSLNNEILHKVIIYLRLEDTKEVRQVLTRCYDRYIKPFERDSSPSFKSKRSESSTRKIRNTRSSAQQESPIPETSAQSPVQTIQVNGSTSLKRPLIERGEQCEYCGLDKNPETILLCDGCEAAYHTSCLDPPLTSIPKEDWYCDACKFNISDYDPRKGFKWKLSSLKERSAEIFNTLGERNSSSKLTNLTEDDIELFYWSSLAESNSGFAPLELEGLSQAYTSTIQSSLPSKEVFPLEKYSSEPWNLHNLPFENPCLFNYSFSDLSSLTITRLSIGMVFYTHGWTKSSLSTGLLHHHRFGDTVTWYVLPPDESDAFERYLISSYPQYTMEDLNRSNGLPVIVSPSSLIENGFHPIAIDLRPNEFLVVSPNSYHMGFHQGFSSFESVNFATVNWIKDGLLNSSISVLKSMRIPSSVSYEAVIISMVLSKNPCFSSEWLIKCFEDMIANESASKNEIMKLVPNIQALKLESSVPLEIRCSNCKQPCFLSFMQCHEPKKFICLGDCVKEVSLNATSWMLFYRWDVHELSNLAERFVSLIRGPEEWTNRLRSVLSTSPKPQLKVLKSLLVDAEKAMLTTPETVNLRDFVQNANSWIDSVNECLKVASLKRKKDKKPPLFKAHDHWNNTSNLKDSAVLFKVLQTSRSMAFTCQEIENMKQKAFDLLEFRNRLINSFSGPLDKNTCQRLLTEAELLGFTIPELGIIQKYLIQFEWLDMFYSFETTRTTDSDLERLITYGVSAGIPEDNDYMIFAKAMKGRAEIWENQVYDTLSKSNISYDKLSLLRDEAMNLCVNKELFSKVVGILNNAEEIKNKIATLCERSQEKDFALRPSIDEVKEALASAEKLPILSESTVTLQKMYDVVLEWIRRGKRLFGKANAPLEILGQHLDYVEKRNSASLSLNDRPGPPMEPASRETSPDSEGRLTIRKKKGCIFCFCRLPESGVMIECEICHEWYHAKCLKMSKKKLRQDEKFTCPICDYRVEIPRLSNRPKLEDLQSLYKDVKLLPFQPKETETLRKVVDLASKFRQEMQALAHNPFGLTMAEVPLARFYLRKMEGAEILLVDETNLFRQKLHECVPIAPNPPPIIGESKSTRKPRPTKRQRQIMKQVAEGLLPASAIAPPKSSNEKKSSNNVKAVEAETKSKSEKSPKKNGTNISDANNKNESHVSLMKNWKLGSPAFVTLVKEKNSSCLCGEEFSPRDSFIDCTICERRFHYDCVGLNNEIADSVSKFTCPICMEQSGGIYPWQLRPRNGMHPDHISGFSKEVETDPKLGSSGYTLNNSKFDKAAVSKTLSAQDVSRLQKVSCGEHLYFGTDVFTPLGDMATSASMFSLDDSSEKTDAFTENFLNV
UniProt O60016: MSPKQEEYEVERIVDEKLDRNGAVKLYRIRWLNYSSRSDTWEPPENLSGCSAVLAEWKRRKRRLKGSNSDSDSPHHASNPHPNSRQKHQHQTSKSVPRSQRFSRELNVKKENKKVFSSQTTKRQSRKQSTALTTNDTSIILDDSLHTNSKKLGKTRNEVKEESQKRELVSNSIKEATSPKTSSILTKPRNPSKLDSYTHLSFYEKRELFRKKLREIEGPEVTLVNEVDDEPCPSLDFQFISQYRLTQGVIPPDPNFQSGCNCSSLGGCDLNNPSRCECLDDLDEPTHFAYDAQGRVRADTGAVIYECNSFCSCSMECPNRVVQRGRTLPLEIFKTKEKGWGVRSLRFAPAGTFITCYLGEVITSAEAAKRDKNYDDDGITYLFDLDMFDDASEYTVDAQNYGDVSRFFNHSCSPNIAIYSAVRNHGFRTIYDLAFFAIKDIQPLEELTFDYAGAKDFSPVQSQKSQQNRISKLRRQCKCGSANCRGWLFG

T1: FLAG-Raf1 (S. pombe) (UniProt O74910)
T1 sequence: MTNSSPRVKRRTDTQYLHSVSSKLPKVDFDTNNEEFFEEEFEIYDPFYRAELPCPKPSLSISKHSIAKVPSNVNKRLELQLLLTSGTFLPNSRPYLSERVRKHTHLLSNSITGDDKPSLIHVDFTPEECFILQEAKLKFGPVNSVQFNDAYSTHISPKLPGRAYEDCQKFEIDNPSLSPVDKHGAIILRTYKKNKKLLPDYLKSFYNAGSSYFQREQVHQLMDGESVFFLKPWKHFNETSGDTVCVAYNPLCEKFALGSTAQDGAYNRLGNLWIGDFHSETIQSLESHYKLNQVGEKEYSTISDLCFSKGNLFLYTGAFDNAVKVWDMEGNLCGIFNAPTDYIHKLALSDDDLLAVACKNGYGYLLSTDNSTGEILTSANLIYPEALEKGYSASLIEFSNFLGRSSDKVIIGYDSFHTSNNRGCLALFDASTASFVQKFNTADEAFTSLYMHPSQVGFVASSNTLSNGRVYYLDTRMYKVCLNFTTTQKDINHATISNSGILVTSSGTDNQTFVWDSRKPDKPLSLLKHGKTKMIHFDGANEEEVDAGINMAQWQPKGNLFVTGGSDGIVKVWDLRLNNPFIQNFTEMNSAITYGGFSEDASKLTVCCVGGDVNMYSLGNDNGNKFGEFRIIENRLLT

T2: FLAG-Raf1-R518A (S. pombe) (UniProt O74910)
T2 sequence: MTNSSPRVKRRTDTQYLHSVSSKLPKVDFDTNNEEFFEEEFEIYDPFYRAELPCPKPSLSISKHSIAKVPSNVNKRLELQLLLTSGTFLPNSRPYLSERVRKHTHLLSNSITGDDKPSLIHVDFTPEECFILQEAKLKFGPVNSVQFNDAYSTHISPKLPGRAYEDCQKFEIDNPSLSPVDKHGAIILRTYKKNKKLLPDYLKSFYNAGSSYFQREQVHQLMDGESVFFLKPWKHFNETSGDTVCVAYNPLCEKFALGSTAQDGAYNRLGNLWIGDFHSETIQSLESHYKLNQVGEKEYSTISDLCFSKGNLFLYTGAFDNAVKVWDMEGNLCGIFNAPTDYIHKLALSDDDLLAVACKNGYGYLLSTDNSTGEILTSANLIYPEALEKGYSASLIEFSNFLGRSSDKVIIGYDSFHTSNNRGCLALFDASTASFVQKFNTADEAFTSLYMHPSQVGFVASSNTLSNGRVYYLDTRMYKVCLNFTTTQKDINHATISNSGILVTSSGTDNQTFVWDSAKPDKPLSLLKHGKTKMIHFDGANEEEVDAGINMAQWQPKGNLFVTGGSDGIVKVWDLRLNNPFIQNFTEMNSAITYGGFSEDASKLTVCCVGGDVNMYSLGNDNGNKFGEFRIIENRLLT

T3: FLAG-Raf1-1 (S. pombe) (UniProt O74910)
T3 sequence: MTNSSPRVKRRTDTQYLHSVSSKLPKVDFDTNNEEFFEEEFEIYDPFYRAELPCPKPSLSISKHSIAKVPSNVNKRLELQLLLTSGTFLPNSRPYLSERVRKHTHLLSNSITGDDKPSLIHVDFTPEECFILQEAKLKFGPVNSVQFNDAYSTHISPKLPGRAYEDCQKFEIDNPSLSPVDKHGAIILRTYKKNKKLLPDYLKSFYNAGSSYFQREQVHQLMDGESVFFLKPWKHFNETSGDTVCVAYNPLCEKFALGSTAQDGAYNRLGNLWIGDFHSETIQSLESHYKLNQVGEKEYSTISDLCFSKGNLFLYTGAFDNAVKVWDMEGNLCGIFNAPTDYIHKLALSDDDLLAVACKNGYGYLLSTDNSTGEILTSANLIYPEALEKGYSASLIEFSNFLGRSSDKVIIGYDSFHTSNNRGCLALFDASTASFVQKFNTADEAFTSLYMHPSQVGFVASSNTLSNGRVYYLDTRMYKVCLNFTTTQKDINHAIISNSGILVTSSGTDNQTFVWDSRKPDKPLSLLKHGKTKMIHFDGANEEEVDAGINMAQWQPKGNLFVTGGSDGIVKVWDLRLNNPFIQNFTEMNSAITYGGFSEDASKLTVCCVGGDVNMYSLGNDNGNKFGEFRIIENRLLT

T4: FLAG-Raf1-R576A (S. pombe) (UniProt O74910)
T4 sequence: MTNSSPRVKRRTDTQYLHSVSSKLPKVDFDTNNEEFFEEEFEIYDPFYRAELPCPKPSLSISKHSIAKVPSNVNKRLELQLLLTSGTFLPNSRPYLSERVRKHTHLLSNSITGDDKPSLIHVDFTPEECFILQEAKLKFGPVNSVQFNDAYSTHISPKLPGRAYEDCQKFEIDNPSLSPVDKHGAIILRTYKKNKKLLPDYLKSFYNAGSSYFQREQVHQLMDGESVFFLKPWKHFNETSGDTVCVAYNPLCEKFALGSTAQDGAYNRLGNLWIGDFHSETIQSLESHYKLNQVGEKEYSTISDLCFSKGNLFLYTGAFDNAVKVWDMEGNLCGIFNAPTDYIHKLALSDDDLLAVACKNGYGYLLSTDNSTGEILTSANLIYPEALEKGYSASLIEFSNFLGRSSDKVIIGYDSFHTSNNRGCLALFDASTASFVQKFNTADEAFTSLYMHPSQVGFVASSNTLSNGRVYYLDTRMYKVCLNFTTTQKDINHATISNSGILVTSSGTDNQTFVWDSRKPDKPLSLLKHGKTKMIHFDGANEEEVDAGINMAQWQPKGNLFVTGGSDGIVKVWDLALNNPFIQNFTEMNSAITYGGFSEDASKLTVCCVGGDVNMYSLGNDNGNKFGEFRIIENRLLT

B1: Rik1-FLAG (protein, UniProt Q10426 1-1040)
chain: MALCVHSFWATAVDTATSCHFISSENCLVLLQALKINIYLCSEVHGLQFFTSIPLFSTVKHIRPYRPPGLDRDYLFVVLNDDTYFSIYWDEDYQKVIVDHPPVRYRVTFPWNRNAKSYCLVDLRMRAIFLSIDEISMICIRILSAEERLKTGRSIDSGFPFSFPVHLIYDMCILNDSSTPTLVVLHSDGLDCYVTAFLLDLSSKSLGKGIRLFERVKPSMIMPFGKRGLLVFESLFIHCMYRGNFVTINGPCTTYMHWTPLKGQKMHYIVCDTNGYLFGVYSSILGKNKWSLVMERLPIPPFDFITSLNSIHEGLLFIGSKNSESKLINLSTLKDVDSIPNLGPIHDLLVLKNDIEKSFLVCAGTPRNASLIYFQHALKLDILGQTKISGILRAMVLPSYPEHKLFLGFPSETVAFNIKEDFQLELDPSLSTKERTIALSGTNGEFVQVTSTFLCIYDSAKRSRLVYIEKITNAACYQEYSAIVINGTALAIFKKDTEVARKVFESEISCLDFSAQFQIGVGFWSKQVMILTFSDNSSISCAFQTNVPSLPRNIILEGVGVDRNLLLVSSGSGEFKSYVLFKNNLVFSETKHFGTTPVSFRRFTMNIGTYIICNNDCPHMVYGFNGALCYMPLSMPQSYDVCQFRDNSGKDFLISVSLGGLKFLQLNPLPELTPRKVLLEHVPLQAIIFQNKLLLRTLENRYEDYESYKENYHLELVDSYDDNSFRVFSFTENERCEKVLKINESSLLVGTSIIEQDKLVPVNGRLILLEFEKELQSLKVVSSMVLSAAVIDLGVYNDRYIVAFGQQVAIVKLTEERLMIDSRISLGSIVLQLIVEGNEIAIADSIGRFTIMYFDGQKFIVVARYLFGENIVKAALYEGTVYIIATNSGLLKLLRYNKDAKNFNDRFICESVYHLHDKVSKFQNFPITNTNSFLEPKMLFATEIGAIGSIVSLKDKELELEELTRKIRKLKFSYLSSMDYESIEADLISPVPFIDGDLVIDVKRWASSELFRLCRSVEHRESLNSYQKVQALLEEIQSLC

What was measured:
[1] = biological target: T1, FLAG-Raf1 (S. pombe); experiment: co-IP; anti-FLAG M2 on proteinG Dynabeads, 1 hr, S. pombe lysate (50 mM Hepes pH7.5, 150 mM KCl, 0.1% NP40), four washes, Western with anti-FLAG and anti-myc; raf1-1 panels and their wild type from cells grown at 36°C
[2] = biological target: T2, FLAG-Raf1-R518A (S. pombe); experiment: as above
[3] = biological target: T3, FLAG-Raf1-1 (S. pombe); experiment: as above
[4] = biological target: T4, FLAG-Raf1-R576A (S. pombe); experiment: as above
[5] = biological target: Lid2-TAP (S. pombe) (UniProt Q9HDV4); experiment: co-IP; TAP-tagged bait on Dynabeads coupled to IgG, S. pombe lysate (50 mM Hepes pH7.5, 150 mM KCl, 0.1% NP40), Western with anti-FLAG; raf1-1 panel from cells grown at 36°C

Row | Molecule | binding [1] | binding [2] | binding [3] | binding [4] | binding [5]
1 | Clr4-Myc (from UniProt O60016 1-490) (enzyme) | binds | no binding | no binding | no binding | 
2 | B1 |  |  |  |  | no binding
